Data taken from a collection of fitness landscapes (doi:10.1126/science.1257360).
The list shows a part of the results.

B1: PhoQ; a variant is named by its letters at X, in order, P23837 (parent)
chain: MKKLLRLFFPLSLRVRFLLATAAVVLVLSLAYGMVALIGYSVSFDKTTFRLLRGESNLFYTLAKWENNKLHVELPENIDKQSPTMTLIYDENGQLLWAQRDVPWLMKMIQPDWLKSNGFHEIEADVNDTSLLLSGDHSIQQQLQEVREDDDDAEMTHSVAVNVYPATSRMPKLTIVVVDTIPVELKSSYMVWSWFIYVLSANLLLVIPLLWVAAWWSLRPIEALAKEVRELEEHNRELLNPATTRELTSLVRNLNRLLKSERERYDKYRTTLTDLTHSLKTPLXXLQXXLRSLRSEKMSVSDAEPVMLEQISRISQQIGYYLHRASMRGGTLLSRELHPVAPLLDNLTSALNKVYQRKGVNISLDISPEISFVGEQNDFVEVMGNVLDNACKYCLEFVEISARQTDEHLYIVVEDDGPGIPLSKREVIFDRGQRVDTLRPGQGVGLAVAREITEQYEGKIVAGESMLGGARMEVIFGRQHSAPKDE

Variants of: B1
Assay: enrichment ratio after two sorts for PhoP signalling (ratio (wild type AVST 3.29)); higher = more functional
Settings: with PhoP (E. coli)

Variant | enrichment ratio
GSAR | ≤ 0.25
QGPG | ≤ 0.25
KRPM | ≤ 0.25
TCSH | 10.9
IRAW | ≤ 0.25
ESHP | ≤ 0.25
PHQH | ≤ 0.25
RIYN | ≤ 0.25
FPHE | ≤ 0.25
LCDM | ≤ 0.25
QMHG | 13
ELRR | ≤ 0.25
NHFN | ≤ 0.25
AKQQ | ≤ 0.25
YHHS | ≤ 0.25
FVYE | ≤ 0.25
VPFE | ≤ 0.25
NQPI | ≤ 0.25
DWNV | ≤ 0.25
NGVD | ≤ 0.25
YKWS | ≤ 0.25
PCAS | ≤ 0.25
IDNF | ≤ 0.25
DCRQ | ≤ 0.25
AHYV | ≤ 0.25

Variant | enrichment ratio
PQSK | ≤ 0.25
INPL | ≤ 0.25
HISQ | ≤ 0.25
WVPI | ≤ 0.25
WMFC | ≤ 0.25
WDNS | ≤ 0.25
DAYY | ≤ 0.25
LEYD | ≤ 0.25
LVIY | ≤ 0.25
KEWA | ≤ 0.25
HTSG | ≤ 0.25
GRPQ | ≤ 0.25
RCAK | ≤ 0.25
KEYQ | ≤ 0.25
NNCK | ≤ 0.25
KNLL | ≤ 0.25
VSTK | ≤ 0.25
YGYE | ≤ 0.25
FFLR | ≤ 0.25
VMYA | ≤ 0.25
DHFW | ≤ 0.25
YEYQ | ≤ 0.25
TRCY | 9.24
DPMQ | ≤ 0.25
SFCL | 1.69

Variant | enrichment ratio
PKAR | ≤ 0.25
LHNT | ≤ 0.25
LNAH | ≤ 0.25
RGRR | 0.579
AQKL | ≤ 0.25
SNFA | ≤ 0.25
LYQA | ≤ 0.25
ADSG | 1.26
RCRL | ≤ 0.25
VGYC | ≤ 0.25
REYM | ≤ 0.25
QPDN | ≤ 0.25
QMKR | ≤ 0.25
KYCE | ≤ 0.25
KYQG | ≤ 0.25
VFGW | ≤ 0.25
PGFW | 0.388
SSEK | ≤ 0.25
SDKM | ≤ 0.25
IQFL | ≤ 0.25
KAFL | ≤ 0.25
ASDQ | ≤ 0.25
VHEY | ≤ 0.25
AVVN | 6.06
PYQP | ≤ 0.25

Variant | enrichment ratio
MSMN | ≤ 0.25
TDIS | 1.04
KFVG | ≤ 0.25
AVSW | 5.53
LKMC | ≤ 0.25
FQVN | ≤ 0.25
DPVK | ≤ 0.25
FMWL | ≤ 0.25
EEAC | ≤ 0.25
RPNN | ≤ 0.25
YVFA | ≤ 0.25
SSNL | 3.91
KKRW | ≤ 0.25
NMMN | ≤ 0.25
GRMF | ≤ 0.25
EKWN | ≤ 0.25
NWAS | ≤ 0.25
EKMF | ≤ 0.25
YNDA | ≤ 0.25
RTFK | ≤ 0.25
DDCC | ≤ 0.25
VIGK | ≤ 0.25
NARW | ≤ 0.25
FFDI | ≤ 0.25
DARL | ≤ 0.25

Variant | enrichment ratio
ILWS | ≤ 0.25
WPRS | ≤ 0.25
IIKN | ≤ 0.25
HHSE | ≤ 0.25
QVSP | ≤ 0.25
HSIK | ≤ 0.25
MPYC | ≤ 0.25
DICA | ≤ 0.25
IGKP | ≤ 0.25
WTVF | ≤ 0.25
WSFM | ≤ 0.25
SAVE | ≤ 0.25
MMWF | ≤ 0.25
NIHQ | ≤ 0.25
INGQ | ≤ 0.25
RVQP | ≤ 0.25
TDYK | ≤ 0.25
IRIM | ≤ 0.25
TSDA | ≤ 0.25
EHRW | ≤ 0.25
DTYQ | ≤ 0.25
FEEW | ≤ 0.25
EDTL | ≤ 0.25
LLKW | ≤ 0.25
SACK | 0.562

Variant | enrichment ratio
KCAW | ≤ 0.25
TRSR | ≤ 0.25
RVHW | ≤ 0.25
WKSQ | ≤ 0.25
DAPG | ≤ 0.25
CTFF | ≤ 0.25
RAMY | ≤ 0.25
IQLE | ≤ 0.25
AVAH | 13.4
FCPS | ≤ 0.25
WVKQ | 1.79
SLKD | ≤ 0.25
PLKP | ≤ 0.25
QFDT | ≤ 0.25
WQSH | ≤ 0.25
QNFP | ≤ 0.25
HQWG | ≤ 0.25
DWQG | ≤ 0.25
GMDW | ≤ 0.25
ACPD | ≤ 0.25
QDKQ | ≤ 0.25
NCPK | ≤ 0.25
YQQP | ≤ 0.25
RPHG | ≤ 0.25
TTPM | ≤ 0.25

Variant | enrichment ratio
MYPI | ≤ 0.25
NEMM | ≤ 0.25
DPLV | ≤ 0.25
FWVG | ≤ 0.25
FGYL | ≤ 0.25
NYCP | ≤ 0.25
TIDS | ≤ 0.25
ALHP | ≤ 0.25
YHND | ≤ 0.25
YYEK | ≤ 0.25
PGSG | ≤ 0.25
TLAL | 8.99
FTLA | 4.58
GKHP | ≤ 0.25
AIIH | 2.68
MSLV | 14.7
VALM | 16.8
HRCD | ≤ 0.25
PIWK | ≤ 0.25
NHIY | ≤ 0.25
WHTG | ≤ 0.25
YAID | ≤ 0.25
YIPG | ≤ 0.25
HRRS | ≤ 0.25
YWGY | ≤ 0.25

Variant | enrichment ratio
SQTE | 26.5
TSQS | 6.53
GRVN | ≤ 0.25
PIFD | ≤ 0.25
PVCK | ≤ 0.25
IEEG | ≤ 0.25
LSHK | ≤ 0.25
MLCQ | ≤ 0.25
DDNI | ≤ 0.25
DPHS | ≤ 0.25
ADDD | ≤ 0.25
IDHE | ≤ 0.25
LKYI | ≤ 0.25
APTC | ≤ 0.25
KMVN | ≤ 0.25
PYLD | ≤ 0.25
GPRE | ≤ 0.25
RLRM | ≤ 0.25
SDKK | ≤ 0.25
CYLI | ≤ 0.25
